# From a collection of fitness landscapes (doi:10.1016/j.celrep.2020.107928)
# The full ranking holds about 81,000 sequences; the median of “one-hybrid fitness for binding parS DNA” is about -0.17, and the highest 2% start at about 0.51. The list shows a part of the results.
# B1: Caulobacter ParB omega fusion; a variant is named by its letters at X, in order, B8GW30 (parent)
# chain: MESVVVGEPGMSEGRRGLGRGLSALLGEVDAAPAQAPGEQLGGSREAPIEILQRNPDQPRRTFREEDLEDLSNSIREKGVLQPILVRPSPDTAGEYQIVAGERAWRAAQRAGLKTVPIMVRELDDLAVLEIGIIENVQRADLNVLEEALSYKVLMEKFERTQENIAQTIGKSXSHVANXMRLLXLPDEVQSYLVSGELTAXHARAIAAAADPVALAKQIIEGGLSVRETEALARKAPNLSAGKSKGGRPPRVKDTDTQALESDLSSVLGLDVSIDHRGSTGTLTITYATLEQLDDLCNRLTRGI
# Variants of: B1
# Test: one-hybrid fitness for binding parS DNA (scaled: cognate 1, non-cognate 0); higher = stronger binding
# Details: with parS DNA site
# Procedure, shortened: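 Pre- and post-selection plasmids were Illumina-sequenced, three replicate libraries were pooled, and any variant with under 10 reads was removed. The libraries were Caulobacter ParB with four specificity codons randomised, selected in E. coli USO through a HIS3 reporter whose site is 19 bp from the promoter. Cells grew 48 hours at 37°C on M9 without histidine, with 0.1 mM IPTG and 5 mM 3-AT. Fitness is the log change in variant-to-wild-type read ratio, rescaled against cognate and non-cognate.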
row,Variant,one-hybrid fitness for binding parS DNA
1,PSRF,≤ 0.2
2,RRMR,≤ 0.2
3,RIMF,0.247
4,TADE,≤ 0.2
5,SCGG,≤ 0.2
6,PMHY,≤ 0.2
7,FSHF,≤ 0.2
8,DCSL,≤ 0.2
9,VNQS,≤ 0.2
10,QVKD,≤ 0.2
11,RWIS,0.609
12,WKHR,≤ 0.2
13,TVLS,≤ 0.2
14,AAMG,≤ 0.2
15,APGT,≤ 0.2
16,TFRI,≤ 0.2
17,NWIG,≤ 0.2
18,HMCG,≤ 0.2
19,RKTF,≤ 0.2
20,PSMV,≤ 0.2
21,LTEV,≤ 0.2
22,AYAF,≤ 0.2
23,RTDE,≤ 0.2
24,SFPT,≤ 0.2
25,CYYT,≤ 0.2
26,KNWG,≤ 0.2

row,Variant,one-hybrid fitness for binding parS DNA
1,RHYW,≤ 0.2
2,IAPK,≤ 0.2
3,HYVL,≤ 0.2
4,ALIA,≤ 0.2
5,LRMI,≤ 0.2
6,VCER,≤ 0.2
7,GTSN,≤ 0.2
8,TQPR,≤ 0.2
9,GIMC,≤ 0.2
10,HMRS,≤ 0.2
11,PLPT,≤ 0.2
12,CRDS,≤ 0.2
13,NSQD,≤ 0.2
14,PIMH,≤ 0.2
15,QVAD,≤ 0.2
16,WMLC,≤ 0.2
17,AHTA,≤ 0.2
18,LTNA,≤ 0.2
19,AYCS,≤ 0.2
20,TMPR,≤ 0.2
21,ETTN,≤ 0.2
22,NKGM,≤ 0.2
23,GSYA,≤ 0.2
24,KVML,≤ 0.2
25,AFFE,≤ 0.2
26,PCEH,≤ 0.2

row,Variant,one-hybrid fitness for binding parS DNA
1,SAIH,≤ 0.2
2,RPNK,≤ 0.2
3,STVM,≤ 0.2
4,HCMT,≤ 0.2
5,HMKR,≤ 0.2
6,YTKL,≤ 0.2
7,GYAC,≤ 0.2
8,HRSC,0.324
9,RRSI,≤ 0.2
10,RTHY,0.544
11,YSKT,≤ 0.2
12,SQDI,≤ 0.2
13,NKYR,≤ 0.2
14,PALP,≤ 0.2
15,ASGL,≤ 0.2
16,HARE,≤ 0.2
17,GTGM,≤ 0.2
18,FPVV,≤ 0.2
19,RLRL,≤ 0.2
20,DWLG,≤ 0.2
21,WPLF,≤ 0.2
22,SDRW,≤ 0.2
23,DVKR,≤ 0.2
24,NDCC,≤ 0.2
25,LEAR,≤ 0.2
26,PAPS,≤ 0.2

row,Variant,one-hybrid fitness for binding parS DNA
1,GPKY,≤ 0.2
2,RVEY,0.353
3,RYGR,≤ 0.2
4,EFGP,≤ 0.2
5,CRPN,≤ 0.2
6,ARVC,≤ 0.2
7,QFQT,≤ 0.2
8,PFMR,≤ 0.2
9,SMRH,≤ 0.2
10,SHNC,≤ 0.2
11,QAGT,≤ 0.2
12,DKDR,≤ 0.2
13,ERVL,≤ 0.2
14,YIES,≤ 0.2
15,VIHT,≤ 0.2
16,NGGS,≤ 0.2
17,QRQA,≤ 0.2
18,TRRR,≤ 0.2
19,TEYG,≤ 0.2
20,VCGS,≤ 0.2
21,NSHM,≤ 0.2
22,TTQT,≤ 0.2
23,TRGL,≤ 0.2
24,KSID,≤ 0.2
25,HPLV,≤ 0.2
26,LIIM,≤ 0.2

row,Variant,one-hybrid fitness for binding parS DNA
1,GHER,≤ 0.2
2,MVVG,≤ 0.2
3,TGHA,≤ 0.2
4,GHAS,≤ 0.2
5,VSTI,≤ 0.2
6,QYAT,≤ 0.2
7,RIAM,0.367
8,EDRT,≤ 0.2
9,QFDS,≤ 0.2
10,TRHQ,≤ 0.2
11,KNHK,≤ 0.2
12,TMPG,≤ 0.2
13,HAGL,≤ 0.2
14,ATAR,≤ 0.2
15,FHID,≤ 0.2
16,CCRG,≤ 0.2
17,FKYS,≤ 0.2
18,SFPH,≤ 0.2
19,ARVR,≤ 0.2
20,WVRP,≤ 0.2
21,STQC,≤ 0.2
22,TRGT,≤ 0.2
23,LAQL,≤ 0.2
24,PWGV,≤ 0.2
25,IHRA,≤ 0.2
26,GPSS,≤ 0.2

row,Variant,one-hybrid fitness for binding parS DNA
1,VGAL,≤ 0.2
2,WNNE,0.298
3,NQTW,≤ 0.2
4,VYEA,≤ 0.2
5,YKFG,≤ 0.2
6,QDNE,≤ 0.2
7,GLQN,≤ 0.2
8,PNGG,≤ 0.2
9,ARYS,≤ 0.2
10,GGHP,≤ 0.2
11,AKDA,≤ 0.2
12,MLCC,≤ 0.2
13,SSVI,≤ 0.2
14,RLIY,0.437
15,TSGA,≤ 0.2
16,RGCT,0.51
17,NHPH,≤ 0.2
18,DAYT,≤ 0.2
19,DTLN,≤ 0.2
20,VMTN,≤ 0.2
21,ILFW,≤ 0.2
22,GWPG,≤ 0.2
23,LRYG,≤ 0.2
